Measured values published in PMC11306250, “Motor domain phosphorylation increases nucleotide exchange and turns MYO6 into a faster and stronger motor” (Nature Communications, 2024).

B1: MYO6 S267A plus T405A double mutant (natural protein)
chain: not shown
notes: Myosin VI (MYO6), human, full-length no-insert isoform, 1253 aa, S267A and T405A; also called S267A+T405A
B2: MYO6 S267A plus T405E double mutant (natural protein)
chain: not shown
notes: Myosin VI (MYO6), human, full-length no-insert isoform, 1253 aa, S267A and T405E; also called S267A+T405E
B3: MYO6 S267E plus T405A double mutant (natural protein)
chain: not shown
notes: Myosin VI (MYO6), human, full-length no-insert isoform, 1253 aa, S267E and T405A; The methods list prints 'S267A plus T405A' twice and never this mutant; also called S267E+T405A
B4: MYO6 S267E plus T405E double mutant (natural protein)
chain: not shown
notes: Myosin VI (MYO6), human, full-length no-insert isoform, 1253 aa, S267E and T405E; also called S267E+T405E

Biological target: rabbit skeletal F-actin labelled with fluorescent phalloidin (gliding assay) (rabbit, UniProt P68135)
Assay: in vitro actin-gliding assay; MYO6 immobilised directly on nitrocellulose-covered coverslips, fluorescent actin filaments in solution; 25 mM KCl, 4 mM MgCl2, 1 mM EGTA, 1 mM DTT, 25 mM imidazole pH 7.4, 2 mM ATP, 22 °C
Details: both partners purified

Binder | binding result
B1 | binds
B2 | binds
B3 | binds
B4 | binds
